From ChEMBL document CHEMBL4888484, “Replenishing the malaria drug discovery pipeline: Screening and hit evaluation of the MMV Hit Generation Library 1 (HGL1) against asexual blood stage Plasmodium falciparum ,using a nano luciferase reporter read-out” (2022)
In all, about 150,000 compounds went through this assay and about 540 (0.36%) showed an effect of 50% or more. The list shows a part of the results.

tested on: Plasmodium falciparum; test: Primary screen in NF54 nanoGlo assay, in single point, at 2uM, 72h; a lower Z score goes with more inhibition; assay type: functional, Erythrocyte; conditions: timepoint 72 hour

Row | SMILES | % Inhibition | Z score
1 | COc1cccc([C@@H](CC(=O)N2CCN(c3cccc(C(F)(F)F)c3)CC2)c2c[nH]c3ccccc23)c1 | -11% | 1.16
2 | COc1ccc(Br)cc1CN1C(=O)CC[C@@]1(C)C(=O)NC1CCCCCC1 | 0% | -0.03
3 | O=C1Nc2ccc(Cl)cc2C(=O)N2CCC[C@H]12 | 21% | -2.73
4 | COc1ccc(C2(C(=O)NC[C@]3(c4ccccc4)CCCOC3)CCOCC2)cc1OC | -11% | 1.5
5 | Cn1nc(-c2nc(C3CC3)no2)c2c1CCN(C(=O)[C@@H]1CCCO1)C2 | -6% | 1.04
6 | CCOC(=O)c1nc2c(s1)N(Cc1cnn(C)c1C)CCCC2 | -13% | 1.38
7 | COc1ccc([C@@H]2C[C@H](c3ccc(F)cc3)n3nnnc3N2)cc1 | -10% | 1.32
8 | CO[C@H]1CCCN(CCN2CCN(Cc3ccccc3)CC2)C1 | -13% | 1.57
9 | CC1OCCC1C(=O)N(C)CC(O)C(F)(F)F (stereo unspecified) | -11% | 1.64
10 | Cc1nc(N2CCCCCCC2)ncc1[C@H](C)NCc1cnn(C)c1C | -1% | 0.26
11 | O=C(NCCC(c1ccccc1)c1ccccc1)c1cc2n(n1)CCN(CC1CC1)C2=O | -27% | 2.35
12 | CCc1nnc(N(C)OC)c(C#N)c1CC | 3% | -0.43
13 | CCOC(=O)[C@@H]1CCCCCN(C(=O)OC(C)(C)C)CCC(=O)N1 | -14% | 1.84
14 | O=C(O)c1ccc(C(=O)N(CC2CCC2)CC(F)(F)F)s1 | -5% | 0.51
15 | Cc1nccn1CC(=O)N1CCCC1C1CC(C)CCC1O (stereo unspecified) | -4% | 0.7
16 | COc1ccc(NC(=O)[C@@H]2CCCN2Cc2nc(-c3cccs3)no2)cc1 | -12% | 1.92
17 | CC(C)C[C@H]1CCN(c2ccnc(C(=O)NCCc3c[nH]cn3)c2)C1 | 7% | -0.93
18 | COc1ccc(NC(=O)c2ccc3nn(CC(=O)NCc4ccc(Cl)cc4)c(=O)n3c2)cc1 | -30% | 2.63
19 | CCCN(C(=O)N(C)C)[C@@H](C)C(=O)Nc1ccccc1 | -6% | 0.75
20 | O=C(Nc1cnc2ccccc2n1)C1CCC(F)(F)CC1 | 1% | -0.06
21 | Cc1ccc([C@@](C)(O)CNC(=O)Nc2ccnn2C2CCCCC2)o1 | -7% | 1.37

Row | SMILES | % Inhibition | Z score
22 | NC(=O)Cc1ccc(OCc2noc(C(=O)NCc3cccnc3)n2)cc1 | -13% | 2.43
23 | O=C(c1cccc(F)c1)N1CCC(n2cc(-c3cccnc3)nn2)CC1 | -3% | 0.57
24 | Cc1nc(C(C)(C)NCC(=O)Nc2c(C)nn(C)c2C)sc1C | -6% | 1.01
25 | CC[C@H](C)N(Cc1cc(NC(=O)C(C)C)ccc1N(C)C)C(=O)c1cccc(C)c1 | -9% | 1.61
26 | Cc1noc(C)c1CN1C(=O)[C@@H]2CC[C@H]1CN(C(=O)Cc1ccccc1)C2 | -11% | 1.34
27 | Cc1cnc(NC(=O)C(F)(F)C(F)(F)F)s1 | -3% | 0.35
28 | Cc1cnc(NC(=O)C2CN(C(=O)COc3ccccc3F)C2)s1 | -11% | 1.64
29 | C[C@H](OC(=O)c1cc(-c2ccccc2Cl)on1)c1nc2ccccc2n1C(F)F | -4% | 0.67
30 | COc1ccccc1N1CCN(C(=O)C2=CCN(Cc3cccc(F)c3)CC2)CC1 | -9% | 1.32
31 | CCc1c(NC(=O)CCCOc2cccc(F)c2)nnn1CCc1ccc(OC)cc1 | 12% | -1.94
32 | Cc1cc(CN2CCN(C(=O)c3csc(C)n3)CC2)on1 | -12% | 1.67
33 | COc1ccccc1O[C@H]1CCCN(C(=O)c2c[nH]c(=O)n2C)C1 | 0% | 0.03
34 | CC(C)NC(=O)N[C@H]1CCN2C(=O)c3cc(-c4ccccc4)ccc3NC(=O)[C@H]12 | 26% | -2.93
35 | CCOCC(=O)N1C[C@H](O)[C@@H](N2CCN(c3ccccc3OC)CC2)C1 | -10% | 1.74
36 | CCN1CCN(C2CCN(Cc3nc(-c4ccccc4)no3)CC2)CC1 | -5% | 0.65
37 | COC(=O)[C@@H](C)NCc1cscn1 | -6% | 0.57
38 | O=C(Nc1cccc(Cl)c1)C1=NCCCN1 | -1% | 0.11
39 | c1ccc2c(c1)CCC(N1CC[C@H]3[C@H](C1)OCc1cnnn13)CC2 | -11% | 2.09
40 | COc1ccc(-c2noc(-c3ccc(N4CCN(c5ncccn5)CC4)nc3)n2)cc1 | 1% | -0.15
41 | CC(=O)c1cccc(N[C@@H](C)C(=O)Nc2nc(C)c(C)s2)c1 | 9% | -1.22
42 | CN(C(=O)Cc1ccc(NC(=O)[C@@H]2COCCO2)cc1)c1ccccc1 | -16% | 2.2

Row | SMILES | % Inhibition | Z score
43 | O=C(NCC(F)(F)C1(O)CCCCC1)c1ccc(O)nc1 | -20% | 2.09
44 | O=C(N[C@H]1CCN(CCCc2ccccc2)C1=O)c1cc[nH]n1 | -7% | 1.16
45 | C[C@H](NCCC(=O)Nc1nccs1)c1nc2c(s1)CCCC2 | 18% | -2.32
46 | CCCn1cc(CN/C(=N\c2ccccc2OC)NC(=O)c2ccccc2F)c(C)n1 | 3% | -0.6
47 | CN1CCC(N2CCN(S(=O)(=O)c3cc(-c4nc(C(C)(C)C)cs4)cs3)CC2)CC1 | 8% | -1.1
48 | CCn1ccnc1CN1CCCC12CCN(c1cc(C)nc3ccccc13)CC2 | 0% | -0.01
49 | CN(C)CCN(C)C1CCN(c2nccc3ccccc23)CC1 | -2% | 0.32
50 | COCCNC(=O)c1coc(CN(Cc2ccc(C)cc2)[C@@H](C)C(C)C)n1 | -5% | 0.68
51 | O=C(c1snc(O)c1Cl)N1CCC(CF)CC1 | -20% | 2.65
52 | CC(C)(CO)N1CCN(C(=O)c2nc3ccccc3cc2Cl)CC1 | 20% | -2.59
53 | C#CCN(C(=O)c1ccc(C(=O)O)s1)C1CCCC1 | -11% | 1.82
54 | CCn1ccc2ccn(Cc3nc(-c4ccc(OC)cc4)no3)c(=O)c21 | 5% | -1.01
55 | CN1CC[C@@]2(CCC1=O)CN(C(=O)Nc1ccc3c(c1)OCO3)CCN2C | -8% | 1.5
56 | CC(=O)N[C@@H]1c2ccccc2C2(CCN(C(=O)c3csc(C)n3)CC2)[C@H]1OCc1ccncc1 | -15% | 2.58
57 | CCc1nc2cc(OC)c(OC)cc2c(=O)n1CCNC(=O)c1cccnc1 | -8% | 1.01
58 | Cc1noc(-c2cc(S(=O)(=O)Nc3ccccc3)c(C)s2)c1C | -3% | 0.34
59 | O=C(CCn1cnc2ccccc2c1=O)N1CCC[C@H](Oc2ncccn2)C1 | -6% | 0.77
60 | CCN(CC)S(=O)(=O)NCc1cc(=O)n(-c2ccccc2)n1C | -2% | 0.24
61 | Cc1nc(C)c(C(=O)ON2C(=O)CCC2=O)s1 | -6% | 1.02
62 | COCCN(Cc1nccs1)C(=O)[C@@H]1CCCN1S(C)(=O)=O | -25% | 2.19
63 | CC(C)CCOc1ccc(C(=O)C(CCC(CN2CCOCC2)C(=O)c2ccc(OCCC(C)C)cc2)CN2CCOCC2)cc1 (stereo unspecified) | -5% | 0.75

Row | SMILES | % Inhibition | Z score
64 | Cc1ccc(Oc2cc(C#N)c(C#N)cc2N2CCCCC2)cc1C | -5% | 0.64
65 | Cc1csc([C@@H](C#N)C(=O)c2cnc3ccccn23)n1 | 24% | -2.79
66 | C=Cc1ccc(N(C)C[C@H]2CC(=O)N(C(C)(C)C)C2)nc1 | 0% | -0.03
67 | CC(O)CC1CCCN1C(=O)CCN1c2ccccc2CCC1C (stereo unspecified) | 2% | -0.21
68 | O=c1[nH]ccc2ccc(-n3ccc(-c4cccnc4)n3)cc12 | -8% | 1.45
69 | Cc1ccc(F)c2c1N(C(=O)C[C@H]1CCS(=O)(=O)C1)CCC2 | 0% | -0.09
70 | CCc1ccc(CN(C)Cc2cccnc2)o1 | -2% | 0.25
71 | Cc1noc(C)c1CC(=O)Nc1nc(C(=O)NCc2ccc3c(c2)OCO3)co1 | 6% | -0.89
72 | Cn1ncc2c(N3CCOCC3)nc(C(=O)NCc3ccccc3)nc21 | -7% | 0.68
73 | CC[C@](C)(NCc1ccc(F)c(Cl)c1)C(N)=O | -6% | 0.63
74 | COc1ccccc1C(=O)NCC(=O)N[C@@H](C)C(c1ccccc1)c1ccccc1 | 1% | -0.19
75 | c1ccc(N2CCOCC2)c(-c2nc(-c3ccsc3)no2)c1 | -1% | 0.06
76 | Cc1ccc(CN2CC[C@H](CO)[C@H](N(C)C)C2)s1 | 3% | -0.39
77 | COc1cc2nc(-c3ccc(C)o3)cc(C(=O)NCc3cc(C)cc(C)c3)c2cc1OC | -12% | 1.22
78 | CC(C)(CNC(=O)c1c[nH]nc1C1CC1)c1cccs1 | -2% | 0.24
79 | O[C@@H](CNCc1cnc(N2CCOCC2)nc1)c1ccccc1 | -9% | 1.02
80 | COCc1nc2nccc(-c3cccc4ccccc34)n2n1 | -6% | 1.14
81 | O=C1c2ccccc2C(=O)C1(c1ccc(N2CCCCC2)cc1)C1(c2ccc(N3CCCCC3)cc2)C(=O)c2ccccc2C1=O | -20% | 1.83
82 | CCN(C(=O)c1ccoc1)c1nc2cc(Cl)ccc2s1 | -8% | 0.7
83 | O=c1c2c(ncn1Cc1ccccc1)c1ccccc1n2Cc1ccccc1 | -3% | 0.38
